From the supplement of paper PMC4604168 (melanoma cell lines) come the findings set out here.

This is one part of the list. Single values are uncertain, as repeats are few or missing.
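Also: cell number obtained by counting DAPI-stained nuclei in high-throughput microscope images with image analysis software, screen run in 1,536-well plates.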

The assay relates to A2058. Nature of the assay: cell count relative to DMSO control; melanoma cells; higher = more viable cells. Particulars: library dose: low library concentration; 72 h.
`CC(=O)c1c(C)c2cnc(Nc3ccc(N4CCNCC4)cn3)nc2n(C2CCCC2)c1=O` [palbociclib] + Oc1nc(-c2ccc(C(F)(F)F)cc2)nc2c1CSCC2 [XAV939] (first compound 0.04 µM, partner dose 2 µM) displayed a cell count of 73.1%. In turn, `Nc1ccn([C@@H]2O[C@H](CO)[C@@H](O)C2(F)F)c(=O)n1` [gemcitabine] + O=c1cc(-c2cccc3c2Sc2ccccc2S3)oc(N2CCOCC2)c1 [KU55933] (first compound 0.0004 µM, partner dose 1 µM) came in with a cell count of 106%. As for `Nc1ncn([C@H]2C[C@H](O)[C@@H](CO)O2)c(=O)n1` [decitabine] + N#Cc1c(O)c2c(-c3ccc(-c4ccccc4O)cc3)csc2[nH]c1=O [A769662] (first compound 0.1 µM, partner dose 2 µM), the figure is 73.1%. Consider `Nc1nc(F)nc2c1ncn2[C@@H]1O[C@H](CO)[C@@H](O)[C@@H]1O` [fludarabine] + CN(C)S(=O)(=O)c1ccc2c(c1)/C(=C/c1cc3c([nH]1)CCCC3)C(=O)N2 [SU6656] (first compound 0.2 µM, partner dose 0.4 µM), for which the cell count is 83.4%. As for `Nc1ncn([C@H]2C[C@H](O)[C@@H](CO)O2)c(=O)n1` [decitabine] + CCc1ccc(CCOc2ccc(CC3SC(=O)NC3=O)cc2)nc1 [pioglitazone] (first compound 0.1 µM, partner dose 2 µM), the figure is 89.5%. `CC(=O)c1c(C)c2cnc(Nc3ccc(N4CCNCC4)cn3)nc2n(C2CCCC2)c1=O` [palbociclib] + CN(NC(=O)CC(=O)NN(C)C(=S)c1ccccc1)C(=S)c1ccccc1 [STA4783] (first compound 0.04 µM, partner dose 0.006 µM) yielded a cell count of 54.4%.

Regarding `CC(=O)O[C@@]12CO[C@@H]1C[C@H](O)[C@@]1(C)C(=O)[C@H](O)C3=C(C)[C@@H](OC(=O)[C@H](O)[C@@H](NC(=O)OC(C)(C)C)c4ccccc4)C[C@@](O)([C@@H](OC(=O)c4ccccc4)[C@H]21)C3(C)C` [Docetaxel] + CS(=O)(=O)CCNCc1ccc(-c2ccc3ncnc(Nc4ccc(OCc5cccc(F)c5)c(Cl)c4)c3c2)o1 [lapatinib] (first compound 0.0001 µM, partner dose 0.8 µM), the cell count is 10.7%. As for `CC(=O)O[C@@]12CO[C@@H]1C[C@H](O)[C@@]1(C)C(=O)[C@H](O)C3=C(C)[C@@H](OC(=O)[C@H](O)[C@@H](NC(=O)OC(C)(C)C)c4ccccc4)C[C@@](O)([C@@H](OC(=O)c4ccccc4)[C@H]21)C3(C)C` [Docetaxel] + c1cc(-c2cnn3cc(-c4ccc(OCCN5CCCCC5)cc4)cnc23)ccn1 [Dorsomorphin] (first compound 0.0001 µM, partner dose 0.4 µM), the figure is 6.8%. In turn, `CO[C@H]1C[C@@H]2CC[C@@H](C)[C@@](O)(O2)C(=O)C(=O)N2CCCC[C@H]2C(=O)O[C@H]([C@H](C)C[C@@H]2CC[C@@H](OCCO)[C@H](OC)C2)CC(=O)[C@H](C)/C=C(\C)[C@@H](O)[C@@H](OC)C(=O)[C@H](C)C[C@H](C)/C=C/C=C/C=C/1C` [everolimus] + COc1cc2ncnc(Nc3ccc(Oc4ccccc4)cc3)c2cc1OC [SrcI1] (first compound 0.02 µM, partner dose 2 µM) showed a cell count of 75.4%. Then `Nc1ncn([C@H]2C[C@H](O)[C@@H](CO)O2)c(=O)n1` [decitabine] + COC(=O)c1sccc1S(=O)(=O)Nc1ccc(Nc2ccccc2)cc1OC [GSK0660] (first compound 0.1 µM, partner dose 1 µM), with 81.1%. Then `Nc1nc(F)nc2c1ncn2[C@@H]1O[C@H](CO)[C@@H](O)[C@@H]1O` [fludarabine] + CCN(CC)CCCCNc1ncc2cc(-c3cc(OC)cc(OC)c3)c(NC(=O)NC(C)(C)C)nc2n1 [PD173074] (first compound 0.2 µM, partner dose 0.1 µM), with 76.3%; and `Nc1ccn([C@@H]2O[C@H](CO)[C@@H](O)C2(F)F)c(=O)n1` [gemcitabine] + Oc1nc(-c2ccc(C(F)(F)F)cc2)nc2c1CSCC2 [XAV939] (first compound 0.0004 µM, partner dose 2 µM), with 88.4%; and `Nc1ccn([C@@H]2O[C@H](CO)[C@@H](O)C2(F)F)c(=O)n1` [gemcitabine] + COc1ccc2c(c1)CCC1C2CCC2(C)C(NCCCCCCN3C(=O)C=CC3=O)CCC12 [U73122] (first compound 0.0004 µM, partner dose 0.4 µM), with 89.4%.
